The results in this text go back to article PMC9911399, “Two distinct binding modes provide the RNA-binding protein RbFox with extraordinary sequence specificity”.

T1: RBFOX1 RRM (Homo sapiens, UniProt Q9NWB1 109-208)
T1 sequence: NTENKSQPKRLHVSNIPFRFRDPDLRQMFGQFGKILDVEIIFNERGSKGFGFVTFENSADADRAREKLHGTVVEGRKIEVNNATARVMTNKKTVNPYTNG

B1: UUAUGUC (DNA:RNA)
RNA: GGGAGACCGGAAUUCAGAUUGUCCUUAUGUCUUAAAUCCCGUCGUAGCCACCA
DNA 1: CAATCTGAATTCCGGTCTCCC
DNA 2: TGGTGGCTACGACGGGATT
B2: UUGUGUU (DNA:RNA)
RNA: B1 RNA with A27G, C31U
DNA 1: CAATCTGAATTCCGGTCTCCC
DNA 2: TGGTGGCTACGACGGGATT
B3: UGCCCGA (DNA:RNA)
RNA: B1 RNA with U26G, A27C, U28C, G29C, U30G, C31A
DNA 1: CAATCTGAATTCCGGTCTCCC
DNA 2: TGGTGGCTACGACGGGATT
B4: CGCAUAA (DNA:RNA)
RNA: GGGAGACCGGAAUUCAGAUUGUCCCGCAUAAUUAAAUCCCGUCGUAGCCACCA
DNA 1: CAATCTGAATTCCGGTCTCCC
DNA 2: TGGTGGCTACGACGGGATT
B5: ACGCUUG (DNA:RNA)
RNA: B4 RNA with C25A, G26C, C27G, A28C, A30U, A31G
DNA 1: CAATCTGAATTCCGGTCTCCC
DNA 2: TGGTGGCTACGACGGGATT
B6: ACCCGGU (DNA:RNA)
RNA: B4 RNA with C25A, G26C, A28C, U29G, A30G, A31U
DNA 1: CAATCTGAATTCCGGTCTCCC
DNA 2: TGGTGGCTACGACGGGATT
B7: GAUGUGG (DNA:RNA)
RNA: B4 RNA with C25G, G26A, C27U, A28G, A30G, A31G
DNA 1: CAATCTGAATTCCGGTCTCCC
DNA 2: TGGTGGCTACGACGGGATT
B8: GGCGCAU (DNA:RNA)
RNA: B4 RNA with C25G, A28G, U29C, A31U
DNA 1: CAATCTGAATTCCGGTCTCCC
DNA 2: TGGTGGCTACGACGGGATT
B9: UUUGGAU (DNA:RNA)
RNA: B1 RNA with A27U, U28G, U30A, C31U
DNA 1: CAATCTGAATTCCGGTCTCCC
DNA 2: TGGTGGCTACGACGGGATT
B10: CUUCACG (DNA:RNA)
RNA: B4 RNA with G26U, C27U, A28C, U29A, A30C, A31G
DNA 1: CAATCTGAATTCCGGTCTCCC
DNA 2: TGGTGGCTACGACGGGATT
B11: ACGAUGU (DNA:RNA)
RNA: B4 RNA with C25A, G26C, C27G, A30G, A31U
DNA 1: CAATCTGAATTCCGGTCTCCC
DNA 2: TGGTGGCTACGACGGGATT
B12: AUGCGGG (DNA:RNA)
RNA: B1 RNA with U25A, A27G, U28C, U30G, C31G
DNA 1: CAATCTGAATTCCGGTCTCCC
DNA 2: TGGTGGCTACGACGGGATT
B13: UCUCGUU (DNA:RNA)
RNA: B1 RNA with U26C, A27U, U28C, C31U
DNA 1: CAATCTGAATTCCGGTCTCCC
DNA 2: TGGTGGCTACGACGGGATT
B14: GAACUUG (DNA:RNA)
RNA: B1 RNA with U25G, U26A, U28C, G29U, C31G
DNA 1: CAATCTGAATTCCGGTCTCCC
DNA 2: TGGTGGCTACGACGGGATT
B15: GAGUGCC (DNA:RNA)
RNA: B1 RNA with U25G, U26A, A27G, U30C
DNA 1: CAATCTGAATTCCGGTCTCCC
DNA 2: TGGTGGCTACGACGGGATT
B16: CAAACCC (DNA:RNA)
RNA: B4 RNA with G26A, C27A, U29C, A30C, A31C
DNA 1: CAATCTGAATTCCGGTCTCCC
DNA 2: TGGTGGCTACGACGGGATT
B17: ACCGUCA (DNA:RNA)
RNA: B4 RNA with C25A, G26C, A28G, A30C
DNA 1: CAATCTGAATTCCGGTCTCCC
DNA 2: TGGTGGCTACGACGGGATT
B18: ACCAAUC (DNA:RNA)
RNA: B4 RNA with C25A, G26C, U29A, A30U, A31C
DNA 1: CAATCTGAATTCCGGTCTCCC
DNA 2: TGGTGGCTACGACGGGATT
B19: AUUUCCA (DNA:RNA)
RNA: B1 RNA with U25A, A27U, G29C, U30C, C31A
DNA 1: CAATCTGAATTCCGGTCTCCC
DNA 2: TGGTGGCTACGACGGGATT
B20: CGAAGAA (DNA:RNA)
RNA: B4 RNA with C27A, U29G
DNA 1: CAATCTGAATTCCGGTCTCCC
DNA 2: TGGTGGCTACGACGGGATT

Residue numbers refer to the chain shown, from its start. Some of the results follow.

This experiment addresses T1, RBFOX1 RRM. Kind of experiment: EMSA; HiTS-Eq, 1 nM pool, 10 min; buffer printed only for the single-RNA assays: 10 mM Tris pH 7.5, 150 mM NaCl, 3.4 mM EDTA, 0.001% NP-40, 30 C. The settings on record: tags: His6 N-terminal (pET28a); label: 5' 32P. The gist of the method: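 Purified RbFox RRM, wild type or mutant, was incubated for 10 min in 50 µL with 1 nM of a 5′-radiolabelled RNA pool carrying 7 randomized nucleotides, whose flanks were annealed to DNA oligonucleotides, over a series of increasing protein concentrations. Unbound RNA was resolved on 8% native PAGE, cut out, reverse-transcribed, barcoded by PCR and sequenced on an Illumina HiSeq 2500. Relative association constants were derived from changes in read counts for each RNA species versus the control reaction and normalised to the cognate motif.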
In general terms: In EMSA bound probe runs differently from free probe, usually more slowly.
With B1, the binding signal was 0.0128 KA relative to UGCAUGU.

Consider B2, for which the binding signal is 0.0252 KA relative to UGCAUGU.

B3: the binding signal was 0.0175 KA relative to UGCAUGU.

Consider B4, for which the binding signal was 0.00512 KA relative to UGCAUGU.

With B5, the binding signal is 0.0291 KA relative to UGCAUGU.

On to B6, for which the binding signal is 0.00743 KA relative to UGCAUGU.

Take B7: the binding signal was 0.0172 KA relative to UGCAUGU.

B8: the binding signal is 0.0148 KA relative to UGCAUGU.

Regarding B9, the binding signal was 0.007 KA relative to UGCAUGU.

On to B10, for which the binding signal is 0.00646 KA relative to UGCAUGU.

B11: the binding signal is 0.00996 KA relative to UGCAUGU.

Consider B12, for which the binding signal was 0.0119 KA relative to UGCAUGU.

Regarding B13, the binding signal is 0.00869 KA relative to UGCAUGU.

In the case of B14, the binding signal was 0.0137 KA relative to UGCAUGU.

As for B15, the binding signal was 0.0148 KA relative to UGCAUGU.

Regarding B16, the binding signal was 0.000305 KA relative to UGCAUGU.

Regarding B17, the binding signal is 0.000905 KA relative to UGCAUGU.

As to B18, the binding signal was 0.000341 KA relative to UGCAUGU.

Turning to B19, the binding signal was 0.000627 KA relative to UGCAUGU.

As for B20, the binding signal is 0.007 KA relative to UGCAUGU.
